Source: the supplement of paper PMC4604168 (melanoma cell lines)
Some of the results follow. Most values come without repeats; read them as rough.
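Note: cell number obtained by counting DAPI-stained nuclei in high-throughput microscope images with image analysis software, screen run in 1,536-well plates.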

These compounds were tested on UACC62 (assay: cell count relative to DMSO control; melanoma cells; higher = more viable cells). Details: library dose: low library concentration; 72 h.
With `CO[C@H]1C[C@@H]2CC[C@@H](C)[C@@](O)(O2)C(=O)C(=O)N2CCCC[C@H]2C(=O)O[C@H]([C@H](C)C[C@@H]2CC[C@@H](OCCO)[C@H](OC)C2)CC(=O)[C@H](C)/C=C(\C)[C@@H](O)[C@@H](OC)C(=O)[C@H](C)C[C@H](C)/C=C/C=C/C=C/1C` [everolimus] + CCCS(=O)(=O)Nc1ccc(F)c(C(=O)c2c[nH]c3ncc(Cl)cc23)c1F [PLX4720] (first compound 0.02 µM, partner dose 0.08 µM) the cell count was 38.2%. In the case of `Nc1ncn([C@H]2C[C@H](O)[C@@H](CO)O2)c(=O)n1` [decitabine] + Cn1cncc1[C@@](N)(c1ccc(Cl)cc1)c1ccc2c(c1)c(-c1cccc(Cl)c1)cc(=O)n2C [tipifarnib] (first compound 0.1 µM, partner dose 0.01 µM), the cell count is reported as 51.8%. Work on `CO[C@H]1C[C@@H]2CC[C@@H](C)[C@@](O)(O2)C(=O)C(=O)N2CCCC[C@H]2C(=O)O[C@H]([C@H](C)C[C@@H]2CC[C@@H](OCCO)[C@H](OC)C2)CC(=O)[C@H](C)/C=C(\C)[C@@H](O)[C@@H](OC)C(=O)[C@H](C)C[C@H](C)/C=C/C=C/C=C/1C` [everolimus] + Nc1ccn([C@@H]2O[C@H](CO)[C@@H](O)C2(F)F)c(=O)n1 [gemcitabine] (first compound 0.02 µM, partner dose 0.0004 µM) yielded a cell count of 67.3%. For `CC(=O)O[C@@]12CO[C@@H]1C[C@H](O)[C@@]1(C)C(=O)[C@H](O)C3=C(C)[C@@H](OC(=O)[C@H](O)[C@@H](NC(=O)OC(C)(C)C)c4ccccc4)C[C@@](O)([C@@H](OC(=O)c4ccccc4)[C@H]21)C3(C)C` [Docetaxel] + COc1cc2ncnc(Nc3ccc(Oc4ccccc4)cc3)c2cc1OC [SrcI1] (first compound 0.0001 µM, partner dose 2 µM), the cell count was 48.6%. With `CO[C@H]1C[C@@H]2CC[C@@H](C)[C@@](O)(O2)C(=O)C(=O)N2CCCC[C@H]2C(=O)O[C@H]([C@H](C)C[C@@H]2CC[C@@H](OCCO)[C@H](OC)C2)CC(=O)[C@H](C)/C=C(\C)[C@@H](O)[C@@H](OC)C(=O)[C@H](C)C[C@H](C)/C=C/C=C/C=C/1C` [everolimus] + CC(C)CCN1c2nc(Nc3cc(F)c(O)c(F)c3)ncc2N(C)C(=O)C1C [BID1870] (first compound 0.02 µM, partner dose 0.2 µM) the cell count was 54.5%. `CO[C@H]1C[C@@H]2CC[C@@H](C)[C@@](O)(O2)C(=O)C(=O)N2CCCC[C@H]2C(=O)O[C@H]([C@H](C)C[C@@H]2CC[C@@H](OCCO)[C@H](OC)C2)CC(=O)[C@H](C)/C=C(\C)[C@@H](O)[C@@H](OC)C(=O)[C@H](C)C[C@H](C)/C=C/C=C/C=C/1C` [everolimus] + Nc1cccc2c1CN(C1CCC(=O)NC1=O)C2=O [lenalidomide] (first compound 0.02 µM, partner dose 1 µM) gave a cell count of 61.8%. Work on `CO[C@H]1C[C@@H]2CC[C@@H](C)[C@@](O)(O2)C(=O)C(=O)N2CCCC[C@H]2C(=O)O[C@H]([C@H](C)C[C@@H]2CC[C@@H](OCCO)[C@H](OC)C2)CC(=O)[C@H](C)/C=C(\C)[C@@H](O)[C@@H](OC)C(=O)[C@H](C)C[C@H](C)/C=C/C=C/C=C/1C` [everolimus] + CS(=O)(=O)CCNCc1ccc(-c2ccc3ncnc(Nc4ccc(OCc5cccc(F)c5)c(Cl)c4)c3c2)o1 [lapatinib] (first compound 0.02 µM, partner dose 0.8 µM) yielded a cell count of 58.2%. For `CO[C@H]1C[C@@H]2CC[C@@H](C)[C@@](O)(O2)C(=O)C(=O)N2CCCC[C@H]2C(=O)O[C@H]([C@H](C)C[C@@H]2CC[C@@H](OCCO)[C@H](OC)C2)CC(=O)[C@H](C)/C=C(\C)[C@@H](O)[C@@H](OC)C(=O)[C@H](C)C[C@H](C)/C=C/C=C/C=C/1C` [everolimus] + O=C(O)c1ccc2c(c1)nc(Nc1cccc(Cl)c1)c1ccncc12 [CX4945] (first compound 0.02 µM, partner dose 0.4 µM), the cell count was 63.9%. Work on `CO[C@H]1C[C@@H]2CC[C@@H](C)[C@@](O)(O2)C(=O)C(=O)N2CCCC[C@H]2C(=O)O[C@H]([C@H](C)C[C@@H]2CC[C@@H](OCCO)[C@H](OC)C2)CC(=O)[C@H](C)/C=C(\C)[C@@H](O)[C@@H](OC)C(=O)[C@H](C)C[C@H](C)/C=C/C=C/C=C/1C` [everolimus] + Clc1ccc(Nc2nnc(Cc3ccncc3)c3ccccc23)cc1 [vatalanib] (first compound 0.02 µM, partner dose 2 µM) yielded a cell count of 60.1%. `CC(=O)c1c(C)c2cnc(Nc3ccc(N4CCNCC4)cn3)nc2n(C2CCCC2)c1=O` [palbociclib] + COc1cc(Nc2ncc(F)c(Nc3ccc4c(n3)NC(=O)C(C)(C)O4)n2)cc(OC)c1OC [Tamatinib] (first compound 0.04 µM, partner dose 0.4 µM) showed a cell count of 69.3%. `CO[C@H]1C[C@@H]2CC[C@@H](C)[C@@](O)(O2)C(=O)C(=O)N2CCCC[C@H]2C(=O)O[C@H]([C@H](C)C[C@@H]2CC[C@@H](OCCO)[C@H](OC)C2)CC(=O)[C@H](C)/C=C(\C)[C@@H](O)[C@@H](OC)C(=O)[C@H](C)C[C@H](C)/C=C/C=C/C=C/1C` [everolimus] + CNC(=O)c1cc(Oc2ccc(NC(=O)Nc3ccc(Cl)c(C(F)(F)F)c3)cc2)ccn1 [sorafenib] (first compound 0.02 µM, partner dose 0.4 µM) gave a cell count of 72.4%. `CO[C@H]1C[C@@H]2CC[C@@H](C)[C@@](O)(O2)C(=O)C(=O)N2CCCC[C@H]2C(=O)O[C@H]([C@H](C)C[C@@H]2CC[C@@H](OCCO)[C@H](OC)C2)CC(=O)[C@H](C)/C=C(\C)[C@@H](O)[C@@H](OC)C(=O)[C@H](C)C[C@H](C)/C=C/C=C/C=C/1C` [everolimus] + Cn1nnc2c(C(N)=O)ncn2c1=O [temozolomide] (first compound 0.02 µM, partner dose 2 µM) was tested, and the cell count was 60.1%. For `CO[C@H]1C[C@@H]2CC[C@@H](C)[C@@](O)(O2)C(=O)C(=O)N2CCCC[C@H]2C(=O)O[C@H]([C@H](C)C[C@@H]2CC[C@@H](OCCO)[C@H](OC)C2)CC(=O)[C@H](C)/C=C(\C)[C@@H](O)[C@@H](OC)C(=O)[C@H](C)C[C@H](C)/C=C/C=C/C=C/1C` [everolimus] + Cc1ccc(NC(=O)c2cccc(N(C)C)c2)cc1NC(=O)c1ccc(O)cc1 [ZM336372] (first compound 0.02 µM, partner dose 2 µM), the cell count was 70.3%. Work on `CC(=O)c1c(C)c2cnc(Nc3ccc(N4CCNCC4)cn3)nc2n(C2CCCC2)c1=O` [palbociclib] + COc1ccc(COc2ccc(Cc3cnc(N)nc3N)cc2OC)cc1 [GW2580] (first compound 0.04 µM, partner dose 1 µM) yielded a cell count of 77.4%. With `CO[C@H]1C[C@@H]2CC[C@@H](C)[C@@](O)(O2)C(=O)C(=O)N2CCCC[C@H]2C(=O)O[C@H]([C@H](C)C[C@@H]2CC[C@@H](OCCO)[C@H](OC)C2)CC(=O)[C@H](C)/C=C(\C)[C@@H](O)[C@@H](OC)C(=O)[C@H](C)C[C@H](C)/C=C/C=C/C=C/1C` [everolimus] + CCc1ccc(CCOc2ccc(CC3SC(=O)NC3=O)cc2)nc1 [pioglitazone] (first compound 0.02 µM, partner dose 2 µM) the cell count was 72.7%. `Nc1ncn([C@H]2C[C@H](O)[C@@H](CO)O2)c(=O)n1` [decitabine] + COc1ccc(COc2ccc(Cc3cnc(N)nc3N)cc2OC)cc1 [GW2580] (first compound 0.1 µM, partner dose 1 µM) showed a cell count of 70.3%. Work on `Nc1nc(F)nc2c1ncn2[C@@H]1O[C@H](CO)[C@@H](O)[C@@H]1O` [fludarabine] + O=S(=O)(c1ccccc1)N(CC(F)(F)F)c1ccc(C(O)(C(F)(F)F)C(F)(F)F)cc1 [T0901317] (first compound 0.2 µM, partner dose 1.4 µM) yielded a cell count of 86.2%. With `Nc1ncn([C@H]2C[C@H](O)[C@@H](CO)O2)c(=O)n1` [decitabine] + O=C(O)C(=O)Nc1sc2c(c1C(=O)O)CCNC2 [TCS401] (first compound 0.1 µM, partner dose 1.66667 µM) the cell count was 70%. With `CO[C@H]1C[C@@H]2CC[C@@H](C)[C@@](O)(O2)C(=O)C(=O)N2CCCC[C@H]2C(=O)O[C@H]([C@H](C)C[C@@H]2CC[C@@H](OCCO)[C@H](OC)C2)CC(=O)[C@H](C)/C=C(\C)[C@@H](O)[C@@H](OC)C(=O)[C@H](C)C[C@H](C)/C=C/C=C/C=C/1C` [everolimus] + OCc1c[nH]c2ccccc12 [Indole-3-carbinol] (first compound 0.02 µM, partner dose 0.8 µM) the cell count was 59.3%.
